From PubChem BioAssay (NCI)
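All cell lines were grown in 96-well plates and treated with compound for 48 hours. GI50 marks 50% less growth. TGI: total growth inhibition.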

tested on: NCI-H322M lung; assay: NCI anticancer screen, dose series, 48 h

Row | SMILES | GI50 | TGI
1 | CC(C)(C)c1cc(-c2cc(-c3ccccc3)[nH]c(=O)c2C#N)cc(C(C)(C)C)c1 | 3.58 µM | 22.1 µM
2 | COC(=O)C(Cc1ccc(O)c(O)c1)NC(=O)C(CSC/C=C(\C)CCCC(C)CCCC(C)CCCC(C)C)NC(C)=O (stereo unspecified) | 34.1 µM | > 100 µM
3 | O=C1CCC(N2C(=O)c3cccc(NCCOCCOCCOCCC(=O)NCCCC(=O)NC(c4ccc5c(c4)OCO5)c4cc(Cl)c5cccnc5c4O)c3C2=O)C(=O)C1 (stereo unspecified) | 8.23 µM | > 99 µM
